Results as given in publication PMC12136788.
The list shows a part of the results.

T1: UNK ZnF1-3 (human, UniProt Q9C0B0 31-174)
T1 sequence: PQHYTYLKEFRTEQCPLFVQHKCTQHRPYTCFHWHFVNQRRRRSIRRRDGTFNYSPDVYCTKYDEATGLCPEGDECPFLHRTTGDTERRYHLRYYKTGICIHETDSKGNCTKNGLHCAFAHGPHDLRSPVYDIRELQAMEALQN

B1: chr12:15822463:15822464:-_ENSMUSG00000020601_ENSMUST00000020922|mus_mus|FALSE|FALSE (ssRNA)
RNA: GGGAGUUCUACAGUCCGACGAUCAAAAGGAUCAAGAAGGGAGGGGACCCGUCUGGGGCUCCGUGGAGGAAGAGUUAAGAACUAGCCCCCAGAUGGGCGCUGCAGGGCUGGUCCCCGGCUGCGAGCCCCGCUCCCGGGGGUGCUCAACAGAGGAUUGAGCAUCA
B2: chr11:77378495:77378496:-_ENSG00000048649_ENST00000308488|hu_hu|FALSE|FALSE (ssRNA)
RNA: GGGAGUUCUACAGUCCGACGAUCUGAAUACUCGUCUGUGCUUCGGCCCCGCUUUCGAACUGACCGCUUUGAUUCUUUAGCUAGCUCAUCAUCUUCAGAGUUCUUGGACAAAUAGCUCUCUUCACUCUCUGAGCUGGAAAGUCUCAACAGAGGAUUGAGCAUCA
B3: 58873064_58873184_2849_3pUTR_ENSMUSG00000025092_ENSMUST00000066285|mouse|control|control (ssRNA)
RNA: GGGAGUUCUACAGUCCGACGAUCCUAUCUACCCAUUUGGUCAUCCACUCAGGAGUCUCAGAAUGUAUACUCUCCAGAGAAGGGGGUACUGCUGUAAUUUGGGGUACCUCACUAACUCUUCAGUGUACAGGUUCCACCAAAGCACAACAGAGGAUUGAGCAUCA
B4: 66274184_66274304_2207_3pUTR_ENSMUSG00000024098_ENSMUST00000024906|mouse|control|control (ssRNA)
RNA: GGGAGUUCUACAGUCCGACGAUCUAAAAUUGAACCUGUGUAUUAUAGAUAUUUGUUUUUGAUUCAUGCUUGAAGGUGAGAAUUUUAUUACUAGGAAGGGCGUGUAGUAAUGAAGCUCAGCACUAUGGAAACGCUAGGUAAGAACAACAGAGGAUUGAGCAUCA
B5: 31334811_31336003_1596_CDS_ENSMUSG00000021962_ENSMUST00000022535|mouse|control|control (ssRNA)
RNA: GGGAGUUCUACAGUCCGACGAUCCCUGGGAACCGUUUGCUGGAACACACUGGGGGACAGCAGGACUGAAGAUACUGCUGUGGUGGUUGCAGGAACCAAUGGAGAGCCUGCAAUCGGGAUGGCACUGGGUAACACCUUAGGCUGCAACAGAGGAUUGAGCAUCA
B6: 168344084_168344669_3204_CDS_ENSG00000130396_ENST00000400822|human|control|control (ssRNA)
RNA: GGGAGUUCUACAGUCCGACGAUCUACUUCCAGUGUCACCACAGAGCUUGUUCUUGUCAUGAGUUCUGCCGCCCUUUCCUGAGAGAGUCCAACCAGACUUCGUCCAUCCACACUGAGGAGCUGAUCACCUGCAGCUAGACGUCCCAACAGAGGAUUGAGCAUCA
B7: chr18:47008509:47008510:-_ENSG00000177576_ENST00000318240|hu_mus|motif|central (ssRNA)
RNA: GGGAGUUCUACAGUCCGACGAUCGCUCACACGGACCUUCUAUUUGUUCAUAUCAGUAAAUUGGAAUAAUAGAAAUGAAAGCGGCUUUAAUGAAAAAGAAACUCAGGGGUGAGAUCAUUAAAUAUAACUACUGGAAUUUUAAAUCAACAGAGGAUUGAGCAUCA
B8: chr14:39627603:39627604:-_ENSG00000182400_ENST00000330149|hu_mus|motif|central (ssRNA)
RNA: GGGAGUUCUACAGUCCGACGAUCGAACUUCAUGAUGUCUAAUUCAUCCUUGAACCUUGCAGUAUCUUUCGUAAACCUUUCGGUCAGUCCUUGCCCCACUCGGAACCCCAUGCUCUCCAGCUUAGUAACACACCUUCCAUUUUCCAACAGAGGAUUGAGCAUCA
B9: chr11:77376804:77376805:-_ENSG00000048649_ENST00000308488|hu_mus|motif|central (ssRNA)
RNA: GGGAGUUCUACAGUCCGACGAUCUGGAUUUUAAUAGAAGUAUAUAAUGGCCAAAGGCCAAAACUACAUUCAAACCCUGCGGAUAUAUCCAGGCCGAUAGAAAAUUCACACACACACACACACACACACACACACACACACACACAACAGAGGAUUGAGCAUCA
B10: chr12:76570751:76570752:-_ENSMUSG00000021051_ENSMUST00000021447|perfect_dup|FALSE|FALSE (ssRNA)
RNA: GGGAGUUCUACAGUCCGACGAUCUGUUUCAUAAACAAACCUUAGAAAAAUAUUGUUAAUCUGUUUUCGGAUAAAUGCUCUAAGACCAAGAAACUUGCCAUAAAUUCUGUGUAAGACUGUUUUUAAGUAGUCCCGUUCCCGAGGCAACAGAGGAUUGAGCAUCA
B11: chr16:94915998:94915999:+_ENSMUSG00000022897_ENSMUST00000023614|mus_mus|FALSE|FALSE (ssRNA)
RNA: GGGAGUUCUACAGUCCGACGAUCCGCCCUCCUGACAGUGCUGUGCUCAAGGUGAGGCCUCUGUACGGAAAUGCUCAUCAACUACCAAGCUCAAAACAAUCCACAGGCUUGACAUUUAAUUACAAAAUCAAUAUGGGUUUCCUGCAACAGAGGAUUGAGCAUCA
B12: chr5:21408736:21408737:-_ENSMUSG00000042453_ENSMUST00000161356|mus_hu|mus_mus_mus_hu_False|28_78 (ssRNA)
RNA: GGGAGUUCUACAGUCCGACGAUCGUUGACAGAGUUGUAGAUGGUGGCUUCAUGGAACUGGAACGGGGAGCAGCCAAUGCUGUUAGAAGAGGAAGGAAGGCACUGGGUCUGCACGAGCUGCCAGGAAUCCGAUCUUGCAUCCUUCAACAGAGGAUUGAGCAUCA
B13: chr7:141445308:141445309:+_ENSG00000106028_ENST00000265304|hu_mus|FALSE|FALSE (ssRNA)
RNA: GGGAGUUCUACAGUCCGACGAUCUAUGAUUGUUGUUGCUUGCCGCCUCACAUUGUUUUUAUCCAUGUACUCGCCAUAGUCCACUUUCCCUUCCACAAAUAUACGAGCCCCCUUUUUCACAUACUGAUAUGCCACAUCUCUGAGCAACAGAGGAUUGAGCAUCA
B14: chrX:20248820:20248821:+_ENSMUSG00000001924_ENSMUST00000001989|mus_mus|mus_mus_mus_hu_True|58_58 (ssRNA)
RNA: GGGAGUUCUACAGUCCGACGAUCGGCGAAGUCCGUCACCACAAAGUCAGGUUCUGCCAGUGAGGCCACCAAGGAUUUAAAACUAAUCUUCUUAGGUACUUUGACCUGACUGACGAUGCCUCCACGGAUGUAGUCGGAGAAGUUCAACAGAGGAUUGAGCAUCA

The binders below were run against T1, UNK ZnF1-3 (assay: nsRBNS (natural sequence RNA bind-n-seq); RBNS binding buffer (assumed for nsRBNS): 25 mM Tris pH 7.5, 150 mM KCl, 3 mM MgCl2, 0.01% Triton X-100, 500 ug/ml BSA, 20 U/ml SUPERase-In, 4 C; UNK is unkempt and MSI1 is Musashi-1; names of the RNAs are library labels; protein concentration not given here; high values mean tight binding).

Binder | binding signal [enrichment R]
B1 | 0.946
B2 | 0.535
B3 | 0.93
B4 | 2.06
B5 | 1.42
B6 | 1.31
B7 | 1.88
B8 | 0.809
B9 | 2.1
B10 | 2.19
B11 | 1.81
B12 | 1.67
B13 | 0.634
B14 | 0.935
